Screen size: about 310,000 compounds; about 2,200 (0.71%) showed an effect of 50% or more. The effect is printed as a negative number. The list shows a part of the results.
Target: human ether-à-go-go-related gene (hERG) potassium channel (human, UniProt Q12809)
Assay: primary screen, population patch clamp on CHO cells stably expressing hERG

Sequence of human ether-à-go-go-related gene (hERG) potassium channel (Q12809 whole entry, looked up): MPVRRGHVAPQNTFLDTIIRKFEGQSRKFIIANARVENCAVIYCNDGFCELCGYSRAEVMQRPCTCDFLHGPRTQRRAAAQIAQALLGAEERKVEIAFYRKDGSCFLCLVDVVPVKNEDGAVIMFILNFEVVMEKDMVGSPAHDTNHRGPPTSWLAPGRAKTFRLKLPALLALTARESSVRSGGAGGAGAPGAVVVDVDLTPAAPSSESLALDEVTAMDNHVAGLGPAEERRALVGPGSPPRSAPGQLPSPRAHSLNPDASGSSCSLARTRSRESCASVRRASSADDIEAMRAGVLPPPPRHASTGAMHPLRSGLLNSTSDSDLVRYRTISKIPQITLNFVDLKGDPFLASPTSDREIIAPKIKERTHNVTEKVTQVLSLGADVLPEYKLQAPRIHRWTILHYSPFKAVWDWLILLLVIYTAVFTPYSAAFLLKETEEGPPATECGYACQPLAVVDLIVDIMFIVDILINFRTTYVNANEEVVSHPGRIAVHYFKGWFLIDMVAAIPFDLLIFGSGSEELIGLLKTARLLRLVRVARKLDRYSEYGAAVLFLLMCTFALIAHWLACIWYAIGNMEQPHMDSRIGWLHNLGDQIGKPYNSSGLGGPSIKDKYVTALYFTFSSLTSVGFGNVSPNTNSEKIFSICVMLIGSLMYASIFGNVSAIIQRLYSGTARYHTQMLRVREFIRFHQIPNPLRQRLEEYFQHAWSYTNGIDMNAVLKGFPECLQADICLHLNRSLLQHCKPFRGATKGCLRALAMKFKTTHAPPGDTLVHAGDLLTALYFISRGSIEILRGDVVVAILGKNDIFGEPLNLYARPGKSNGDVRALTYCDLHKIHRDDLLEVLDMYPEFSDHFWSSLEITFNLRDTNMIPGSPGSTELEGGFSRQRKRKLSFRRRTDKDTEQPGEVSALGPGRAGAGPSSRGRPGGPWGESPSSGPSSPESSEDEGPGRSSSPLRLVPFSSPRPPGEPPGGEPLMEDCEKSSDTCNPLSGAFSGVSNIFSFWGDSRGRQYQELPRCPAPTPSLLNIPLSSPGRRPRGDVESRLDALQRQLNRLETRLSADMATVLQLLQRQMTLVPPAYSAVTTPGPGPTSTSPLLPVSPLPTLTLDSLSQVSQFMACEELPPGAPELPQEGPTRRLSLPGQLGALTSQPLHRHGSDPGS

Compared with `Cc1cc(C(=O)CN2CCCC2)c(C)n1-c1ccc(Cl)cc1`, `Cc1cc(C)c(OCC(=O)Nc2ccc(S(=O)(=O)N3CCCC3)cc2)c(C)c1` is lower in “hERG current change (%, negative = inhibition) at 1uM” value: 24.6% for the first, -11.3% for the second.

Going from `O=C(Cn1ncc2c(=O)oc3ccccc3c21)NCCCN1CCCC1=O` to `CCCNc1c(NS(=O)(=O)c2cccc(C#N)c2)c(=O)oc2ccccc12`, the “hERG current change (%, negative = inhibition) at 1uM” value falls from 6.64% to -39.7%.

First: COc1cc(Cl)c(C)cc1NC(=O)COC(=O)/C=C/c1c(C)nn(C2CCS(=O)(=O)C2)c1Cl (centres unmarked)
Second: COc1cc(NC(=O)Cn2cnc3sc(C)c(S(=O)(=O)N4CCN(C)CC4)c3c2=O)cc(OC)c1OC
The “hERG current change (%, negative = inhibition) at 1uM” value of the first is higher: 11.7% for the first, 8.88% for the second.

Compared with `COC(CNC(=O)c1ccc2c(c1)ncn2-c1cccc(C)c1)OC`, `COCCCNC(=O)C(C)N1c2cccc3cccc(c23)S1(=O)=O` (centres unmarked) is higher in “hERG current change (%, negative = inhibition) at 1uM” value: 8.64% for the first, 14% for the second.

Compared with `CCCCCOc1ccc(CSC2=NCCN2)cc1[N+](=O)[O-]`, `CCOc1cc([N+](=O)[O-])cc2c1C(=O)Nc1ccccc1O2` is higher in “hERG current change (%, negative = inhibition) at 1uM” value: -60% for the first, 10.3% for the second.

Compared with `Cc1nn(Cc2ccc(Cl)cc2)c(C)c1NC(=O)C1CC=CCC1C(=O)O` (centres unmarked), `O=C(COC(=O)c1ccco1)NCCc1ccc(Cl)cc1` is lower in “hERG current change (%, negative = inhibition) at 1uM” value: 10.1% for the first, -2.34% for the second.

Going from `O=C(Nc1ccccc1-c1ccccc1)c1ccccc1[N+](=O)[O-]` to `Cc1cccc(C)c1NC(=O)CNC(=O)c1cn(-c2ccccc2)nc1-c1ccccc1`, the “hERG current change (%, negative = inhibition) at 1uM” value falls from 14.4% to 12.4%.

Going from `N#CCC(=O)Nc1ccc(C(=O)OCC(=O)N2CCCC2=O)cc1` to `Cc1cccc(CN2CCN(C(=O)CN(C)C(C)C(=O)Nc3ccc(C(N)=O)cc3)CC2)c1` (centres unmarked), the “hERG current change (%, negative = inhibition) at 1uM” value rises from 13.5% to 17.8%.

Going from `CN(c1cccc(NC(=O)CN(c2ccc(Cl)c(Cl)c2)S(=O)(=O)c2ccccc2)c1)S(C)(=O)=O` to `O=C(Cc1ccccc1)NC(=S)Nc1ccc2oc(-c3ccccc3)nc2c1`, the “hERG current change (%, negative = inhibition) at 1uM” value rises from 3.57% to 8.31%.

First: CC1=CC(C)(C)NC(=S)N1c1cccc2ccccc12
Second: CCN1/C(=C/C(=S)Nc2ccccc2)Sc2ccccc21
The “hERG current change (%, negative = inhibition) at 1uM” value of the first is lower: 13.7% for the first, 16.3% for the second.

Compared with `CCc1ccc(NC(=O)CSc2nnc(CC)c(CC)n2)cc1`, `Cn1c(CNc2ccc(F)cc2)nnc1SCC(=O)NNC(=O)Cc1ccccc1` is higher in “hERG current change (%, negative = inhibition) at 1uM” value: -11.6% for the first, 13% for the second.

Going from `S=c1[nH]nc(Cn2cnc3ccccc32)n1-c1ccccc1Cl` to `O=[N+]([O-])c1ccc(C2=Nn3c(Cn4nnc5ccccc54)nnc3SC2)cc1`, the “hERG current change (%, negative = inhibition) at 1uM” value falls from 12.8% to -3.66%.

First: COc1ccc(C2CC2/C(C)=N/OC(=O)c2ccc(F)cc2)cc1 (centres unmarked)
Second: COc1ccc(OCC(=O)Nc2ccc(N3CCC(C)CC3)cc2)cc1
The “hERG current change (%, negative = inhibition) at 1uM” value of the first is lower: 9.09% for the first, 11.6% for the second.

First: COc1ccc(C2=NN(CCC(=O)NCc3ccc4c(c3)OCO4)C(=O)CC2)cc1
Second: COc1ccccc1CCNS(=O)(=O)CCNC(=O)c1ccc2c(c1)OCO2
The “hERG current change (%, negative = inhibition) at 1uM” value of the first is higher: 13.3% for the first, 11.7% for the second.

First: O=C(CSc1nnc(NC(=O)c2cccc(F)c2)s1)NC1CC1
Second: CC(=O)N1CCC(C(=O)Nc2nc(-c3ccccc3)ns2)CC1
The “hERG current change (%, negative = inhibition) at 1uM” value of the first is higher: 15.3% for the first, 1.53% for the second.

First: COc1ccc2cc(C(=O)C3CCCN(C(=O)c4cncs4)C3)ccc2c1 (centres unmarked)
Second: CC(=O)c1ccc(OCC(=O)Nc2ccc3nc(C)sc3c2)cc1
The “hERG current change (%, negative = inhibition) at 1uM” value of the first is higher: 9.26% for the first, 5.62% for the second.

Compared with `COc1cc(C2c3c(-c4cc(C)cc(C)c4O)n[nH]c3C(=O)N2CCCO)cc(OC)c1OC` (centres unmarked), `COc1cc(C(=O)Nc2sc3c(c2C#N)CCN(C(C)=O)C3)cc(OC)c1OC` is higher in “hERG current change (%, negative = inhibition) at 1uM” value: 4.34% for the first, 10.4% for the second.

Compared with `O=C(O)c1ccc(OCC(F)(F)F)nc1`, `O=C(Nc1ccc(Cl)c(C(F)(F)F)c1)c1ccncc1` is lower in “hERG current change (%, negative = inhibition) at 1uM” value: 12.9% for the first, 8.86% for the second.

First: O=C(/C=C/c1ccccc1)NCCCNC(=O)/C=C/c1ccccc1
Second: O=C(COC(=O)c1ccccc1C(=O)N1CCN(c2ccccc2)CC1)Nc1ccccc1
The “hERG current change (%, negative = inhibition) at 1uM” value of the first is higher: 8.48% for the first, 6.1% for the second.

First: CCOC(=O)C1=C(CS(=O)(=O)c2ccc(F)c(C)c2)NC(=O)NC1c1ccc(O)c(O)c1 (centres unmarked)
Second: COc1cc(C2C3=C(CC(C)(C)CC3=O)Nc3c2c(=O)[nH]c(=O)n3Cc2ccccc2)ccc1O (centres unmarked)
The “hERG current change (%, negative = inhibition) at 1uM” value of the first is higher: 7.8% for the first, 1.5% for the second.

Compared with `Cc1cc(C(=O)N/N=C/c2ccncc2)c(C)o1`, `COC(=O)c1oc(-c2ccc(Cl)cc2)nc1C` is lower in “hERG current change (%, negative = inhibition) at 1uM” value: 17% for the first, 8.82% for the second.

First: CCc1ccc(CNC(=O)c2nn(C)c3c2CS(=O)(=O)c2ccccc2-3)cc1
Second: CC(=O)Nc1ccc(N2CCc3c(C)c(C#N)c4nc5ccccc5n4c32)cc1
The “hERG current change (%, negative = inhibition) at 1uM” value of the first is lower: 8.78% for the first, 10.3% for the second.

First: O=C(NNC(=O)c1ccccc1Br)c1ccc(Cl)cc1
Second: CSc1ccccc1C(=O)NC1CCSc2ccccc21 (centres unmarked)
The “hERG current change (%, negative = inhibition) at 1uM” value of the first is lower: -6.66% for the first, 4.6% for the second.

Going from `O=C(C(NS(=O)(=O)c1cccc2nsnc12)c1ccccc1)N1CCN(c2ccccc2)CC1` (centres unmarked) to `COc1ccc(N2CCN(C(=O)c3ccccc3N(C)S(=O)(=O)c3ccc(C)cc3)CC2)cc1`, the “hERG current change (%, negative = inhibition) at 1uM” value rises from -5.63% to 7.67%.

Going from `COc1ccc(OC)c(C2C(C(=O)c3cccs3)=C(O)C(=O)N2CCN2CCOCC2)c1` (centres unmarked) to `Cc1cc(=O)oc2cc(OCC(=O)NCCN3CCOCC3)ccc12`, the “hERG current change (%, negative = inhibition) at 1uM” value rises from 14.2% to 16%.

Compared with `COCCCN(Cc1cccs1)S(=O)(=O)c1c[nH]c(C(=O)OC)c1`, `CCOC(=O)c1c(NC(=O)c2cccs2)sc2c1CCN(C(=O)OCC)C2` is lower in “hERG current change (%, negative = inhibition) at 1uM” value: 17.6% for the first, -5.88% for the second.

Going from `Cc1c(S(=O)(=O)N2CCN(C(c3ccccc3)c3ccccc3)CC2)c(=O)n(C)c(=O)n1C` to `Cc1cccc(C(=O)NC(=S)Nc2ccc(S(=O)(=O)N3CCN(C)CC3)cc2)c1`, the “hERG current change (%, negative = inhibition) at 1uM” value rises from 3.78% to 8.98%.

First: Cc1onc(-c2ccccc2Cl)c1C(=O)NC1CCCCCC1
Second: Cc1ccc(C)c(NC(=O)NC2CCCCCCC2)c1
The “hERG current change (%, negative = inhibition) at 1uM” value of the first is higher: 11.1% for the first, -5.57% for the second.

Compared with `COc1cc2[nH]c(=S)n(Cc3ccccc3)c(=O)c2cc1OC`, `COc1cc(CNCCc2c[nH]c3ccccc23)cc(Cl)c1OCC(N)=O.Cl` is lower in “hERG current change (%, negative = inhibition) at 1uM” value: 9.13% for the first, -1.47% for the second.

Compared with `Cl.O=C(OCCN1CCOCC1)c1ccc2c(c1)OCCO2`, `COC(=O)CSc1ccc(S(=O)(=O)N2CCOCC2)cc1[N+](=O)[O-]` is lower in “hERG current change (%, negative = inhibition) at 1uM” value: 8.19% for the first, 6.98% for the second.

First: Cc1nnc(SCC(=O)N(C(C)C)C(C)C)[nH]c1=O
Second: Cc1ccc(C(C(=O)NC(C)(C)C)N(Cc2ccco2)C(=O)Cn2nnc(-c3cccs3)n2)cc1 (centres unmarked)
The “hERG current change (%, negative = inhibition) at 1uM” value of the first is lower: 6.48% for the first, 18.3% for the second.

Compared with `Cn1c2ccc(F)cc2c2ncn(CCCN(CCO)CCO)c(=O)c21`, `CCC(=O)Nc1ccc(Cl)c(-c2nc3ncccc3o2)c1` is higher in “hERG current change (%, negative = inhibition) at 1uM” value: -13.9% for the first, 2.63% for the second.

First: CCOC(=O)C/C(C)=N\Nc1ccc([N+](=O)[O-])cc1[N+](=O)[O-]
Second: CCNC(=O)Nc1ccccc1C(=O)OC
The “hERG current change (%, negative = inhibition) at 1uM” value of the first is lower: 0.973% for the first, 14.9% for the second.

First: NC(=O)CC[C@@H]1NC(=O)[C@H](CO)NC(=O)c2cc([N+](=O)[O-])cc(I)c2NCCCC[C@@H](C(N)=O)NC(=O)[C@H](Cc2ccc(O)cc2)NC1=O
Second: O=C(COC(=O)CN1C(=O)C(=O)c2ccccc21)OCN1C(=O)c2ccccc2C1=O
The “hERG current change (%, negative = inhibition) at 1uM” value of the first is higher: 7.25% for the first, -5.15% for the second.

First: CC(C)c1ccc(CN(C)C(=O)c2ccc(S(=O)(=O)NCc3ccco3)cc2)cc1
Second: CCOc1ccc(NC(=O)C(=O)NCCN2CCN(S(=O)(=O)c3ccc(C)cc3)CC2)cc1
The “hERG current change (%, negative = inhibition) at 1uM” value of the first is lower: 5.28% for the first, 11.6% for the second.

Compared with `CCC(=O)NNc1ncnc2ccccc12`, `CC(Nc1ncnc2sccc12)c1ccccc1` (centres unmarked) is higher in “hERG current change (%, negative = inhibition) at 1uM” value: 8.52% for the first, 13% for the second.

First: O=C(NCCN1CCCCCC1)C1CCCN1S(=O)(=O)c1cccc2nsnc12 (centres unmarked)
Second: O=C(CSC1CCCCC1)N1CCN(c2ccccc2)CC1
The “hERG current change (%, negative = inhibition) at 1uM” value of the first is lower: 7.05% for the first, 10.9% for the second.

Compared with `CCc1cc2cc(C(=O)N3CCN(c4ccccc4)CC3)sc2s1`, `CC1=C(C(=O)N2CCCC(N3CCN(c4ccccc4F)CC3)C2)OCCO1` (centres unmarked) is higher in “hERG current change (%, negative = inhibition) at 1uM” value: 12.3% for the first, 13.3% for the second.

Compared with `CCn1cc(C2=NCC(C)O2)c2ccccc21` (centres unmarked), `CC[C@]12CCCN3CCc4c(n(c5ccccc45)[C@](O)(C(=O)OC)C1)[C@@H]32` is lower in “hERG current change (%, negative = inhibition) at 1uM” value: 4.87% for the first, -69.4% for the second.

Compared with `CCOC(=O)CNC(=O)CSc1nc2cccnc2n1C1CCCCC1`, `CC1CCCC(C)N1C(=O)COC(=O)CNC(=O)c1sc2ccccc2c1Cl` (centres unmarked) is lower in “hERG current change (%, negative = inhibition) at 1uM” value: 13.2% for the first, -5.15% for the second.

Going from `O=C(O)CCn1cc(/C=C2\NC(=S)N(c3ccccc3)C2=O)c(-c2ccc(Br)cc2)n1` to `O=C(Nc1ccc(Cl)cc1)N1CCN(c2ccc3nnc(-c4ccc(F)cc4)n3n2)CC1`, the “hERG current change (%, negative = inhibition) at 1uM” value falls from 17.8% to 11.5%.

Going from `CC(Oc1ccccc1F)c1ccnc2nc(/N=C/N(C)C)nn12` (centres unmarked) to `CC(C)Nc1ncnc2c1nnn2Cc1ccccc1`, the “hERG current change (%, negative = inhibition) at 1uM” value rises from 6.48% to 12.5%.

Going from `CC12CCC(C(=O)NCc3ccco3)(OC1=O)C2(C)C` (centres unmarked) to `COC(=O)CN1C(=O)C2(C(C#N)=C(N)Oc3n[nH]c(-c4cccs4)c32)c2ccccc21` (centres unmarked), the “hERG current change (%, negative = inhibition) at 1uM” value falls from 6.55% to 5.2%.

Reference: publication PMC4336329 (PLoS ONE, 2015)
